# Laboratory results reported in the supplement of paper PMC8728848.
# This is one part of the list.
# B1: Crocus Lectin (Crocus vernus), Q9FVA1 (protein)
# chain: MAKSLVLSSLLLALLLAAPLASLADNNVLLTGDVLHTDNQLSFESAAFVMQGDCNLVLYNEAGGFQSNTHGRGVGCTLRLNNFGQLEIHSANSNTPVWVSLRNGIPVRGDYAAVLGPDQHVTIYGPAIWSTPAPNRHERGATVSNIPRVRNVLFSSQVMSDNAQLATRDYSLVMRDDCNLALTKGSKTNIVWESGTSGRGQHCFMRLGHTGLIEISDDRLNTVWRSNTVGQEGDYVLILQINGQAVVYGPAVWSTASPARGGASAAL
# Tests used:
# Experiment in all cases: glycan array binding signal (z-score within array); higher = stronger binding
# Conditions in all cases: glycan notation: IUPAC condensed, linker removed
# [1] = target: Gal(b1-3)[Neu5Ac(a2-6)]GalNAc
# How it was run: (§1)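 Glycan array binding is given as a within-array Z-score, which can be read as non-binding when negative. The arrays, 3228 of them, came from the Consortium for Functional Glycomics database and were retained only where the protein sequence was available. Z-scores were averaged across arrays of the same protein sequence at different concentrations or buffers and across linkers.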
# [2] = target: Gal(b1-3)[Neu5Ac(a2-6)]GlcNAc
# How it was run: as §1
# [3] = target: Gal(b1-3)[Neu5Ac(a2-6)]GlcNAc(a1-4)Gal(b1-4)Glc
# How it was run: as §1
# [4] = target: Gal(b1-3)[Neu5Ac(b2-6)]GlcNAc
# How it was run: as §1
# [5] = target: Gal(b1-4)GalNAc(a1-3)[Fuc(a1-2)]Gal(b1-4)GlcNAc
# How it was run: as §1
# [6] = target: Gal(b1-4)GalNAc(b1-3)[Fuc(a1-2)]Gal(b1-4)GlcNAc
# How it was run: as §1
# Gal(b1-4)Glc = target: Gal(b1-4)Glc
# How it was run: as §1
# Gal(b1-4)Glc6S = target: Gal(b1-4)Glc6S
# How it was run: as §1
# Gal(b1-4)GlcNAc = target: Gal(b1-4)GlcNAc
# How it was run: as §1
# [7] = target: Gal(b1-4)GlcNAc(b1-2)Man(a1-3)[Gal(b1-4)GlcNAc(b1-2)Man(a1-6)]Man(b1-4)GlcNAc(b1-4)GlcNAc
# How it was run: as §1
# [8] = target: Gal(b1-4)GlcNAc(b1-3)Gal(b1-4)Glc
# How it was run: as §1
# [9] = target: Gal(b1-4)GlcNAc(b1-3)Gal(b1-4)GlcNAc
# How it was run: as §1
# [10] = target: Gal(b1-4)GlcNAc(b1-3)Gal(b1-4)GlcNAc(b1-3)Gal(b1-4)GlcNAc
# How it was run: as §1
# [11] = target: Gal(b1-4)GlcNAc(b1-3)Gal(b1-4)[Fuc(a1-3)]GlcNAc(b1-3)Gal(b1-4)[Fuc(a1-3)]GlcNAc
# How it was run: as §1
# [12] = target: Gal(b1-4)GlcNAc(b1-3)GalNAc
# How it was run: as §1
# [13] = target: Gal(b1-4)GlcNAc(b1-3)[Gal(b1-4)GlcNAc(b1-6)]GalNAc
# How it was run: as §1
# [14] = target: Gal(b1-4)GlcNAc(b1-6)GalNAc
# How it was run: as §1
# [15] = target: Gal(b1-4)GlcNAc(b1-6)[Gal(b1-3)]GalNAc
# How it was run: as §1
# [16] = target: Gal(b1-4)GlcNAc(b1-6)[Gal(b1-3)]GlcNAc
# How it was run: as §1
# Gal3S(b1-3)GalNAc = target: Gal3S(b1-3)GalNAc
# How it was run: as §1
# Gal3S(b1-3)GlcNAc = target: Gal3S(b1-3)GlcNAc
# How it was run: as §1
# [17] = target: Gal3S(b1-3)[Fuc(a1-4)]GlcNAc
# How it was run: as §1
# Gal3S(b1-4)Glc = target: Gal3S(b1-4)Glc
# How it was run: as §1
# Gal3S(b1-4)Glc6S = target: Gal3S(b1-4)Glc6S
# How it was run: as §1
# Gal3S(b1-4)GlcNAc = target: Gal3S(b1-4)GlcNAc
# How it was run: as §1
# Gal3S(b1-4)GlcNAc6S = target: Gal3S(b1-4)GlcNAc6S
# How it was run: as §1
# Gal3S6S(b1-4)GlcNAc = target: Gal3S6S(b1-4)GlcNAc
# How it was run: as §1
# Gal3S6S(b1-4)GlcNAc6S = target: Gal3S6S(b1-4)GlcNAc6S
# How it was run: as §1
# Gal4S(b1-4)GlcNAc = target: Gal4S(b1-4)GlcNAc
# How it was run: as §1
# Gal4S6S(b1-4)GlcNAc = target: Gal4S6S(b1-4)GlcNAc
# How it was run: as §1
# Gal6S(b1-4)Glc = target: Gal6S(b1-4)Glc
# How it was run: as §1
# Gal6S(b1-4)Glc6S = target: Gal6S(b1-4)Glc6S
# How it was run: as §1
# Gal6S(b1-4)GlcNAc = target: Gal6S(b1-4)GlcNAc
# How it was run: as §1
# GalNAc(a1-3)Gal = target: GalNAc(a1-3)Gal
# How it was run: as §1
# GalNAc(a1-3)GalNAc = target: GalNAc(a1-3)GalNAc
# How it was run: as §1
# [18] = target: GalNAc(b1-3)Gal(a1-4)Gal(b1-4)GlcNAc
# How it was run: as §1
# GalNAc(b1-4)GlcNAc = target: GalNAc(b1-4)GlcNAc
# How it was run: as §1
# Glc(a1-4)Glc = target: Glc(a1-4)Glc
# How it was run: as §1
# Glc(a1-6)Glc(a1-6)Glc = target: Glc(a1-6)Glc(a1-6)Glc
# How it was run: as §1
# Glc(b1-4)Glc = target: Glc(b1-4)Glc
# How it was run: as §1
# Glc(b1-6)Glc = target: Glc(b1-6)Glc
# How it was run: as §1
# GlcA(b1-3)Gal = target: GlcA(b1-3)Gal
# How it was run: as §1
# GlcA(b1-6)Gal = target: GlcA(b1-6)Gal
# How it was run: as §1
# [19] = target: GlcNAc(a1-3)Gal(b1-4)GlcNAc
# How it was run: as §1
# [20] = target: GlcNAc(a1-6)Gal(b1-4)GlcNAc
# How it was run: as §1
# [21] = target: GlcNAc(b1-2)Gal(b1-3)GlcNAc
# How it was run: as §1
# [22] = target: GlcNAc(b1-2)Man(a1-3)[GlcNAc(b1-2)Man(a1-6)]Man(b1-4)GlcNAc(b1-4)GlcNAc
# How it was run: as §1
# GlcNAc(b1-3)Gal = target: GlcNAc(b1-3)Gal
# How it was run: as §1
# [23] = target: GlcNAc(b1-3)Gal(b1-3)GalNAc
# How it was run: as §1
# GlcNAc(b1-3)Gal(b1-4)Glc = target: GlcNAc(b1-3)Gal(b1-4)Glc
# How it was run: as §1
# [24] = target: GlcNAc(b1-3)Gal(b1-4)GlcNAc
# How it was run: as §1
# [25] = target: GlcNAc(b1-3)Gal(b1-4)GlcNAc(b1-3)Gal(b1-4)GlcNAc
# How it was run: as §1
# GlcNAc(b1-3)GalNAc = target: GlcNAc(b1-3)GalNAc
# How it was run: as §1
# [26] = target: GlcNAc(b1-3)[GlcNAc(b1-4)][GlcNAc(b1-6)]GlcNAc
# How it was run: as §1
# [27] = target: GlcNAc(b1-3)[GlcNAc(b1-6)]Gal(b1-4)GlcNAc
# How it was run: as §1
# [28] = target: GlcNAc(b1-3)[GlcNAc(b1-6)]GlcNAc
# How it was run: as §1
# [29] = target: GlcNAc(b1-4)Gal(b1-4)GlcNAc
# How it was run: as §1
# [30] = target: GlcNAc(b1-4)GlcNAc(b1-4)GlcNAc
# How it was run: as §1
# [31] = target: GlcNAc(b1-4)GlcNAc(b1-4)GlcNAc(b1-4)GlcNAc(b1-4)GlcNAc
# How it was run: as §1
# [32] = target: GlcNAc(b1-4)GlcNAc(b1-4)GlcNAc(b1-4)GlcNAc(b1-4)GlcNAc(b1-4)GlcNAc
# How it was run: as §1
binder,measurement,setting,value
B1,glycan array binding signal (z-score),[1],0.099
same,glycan array binding signal (z-score),[2],-0.155
same,glycan array binding signal (z-score),[3],-0.196
same,glycan array binding signal (z-score),[4],-0.171
same,glycan array binding signal (z-score),[5],-0.195
same,glycan array binding signal (z-score),[6],-0.188
same,glycan array binding signal (z-score),Gal(b1-4)Glc,-0.152
same,glycan array binding signal (z-score),Gal(b1-4)Glc6S,-0.165
same,glycan array binding signal (z-score),Gal(b1-4)GlcNAc,-0.147
same,glycan array binding signal (z-score),[7],0.268
same,glycan array binding signal (z-score),[8],-0.19
same,glycan array binding signal (z-score),[9],-0.199
same,glycan array binding signal (z-score),[10],-0.063
same,glycan array binding signal (z-score),[11],-0.17
same,glycan array binding signal (z-score),[12],-0.189
same,glycan array binding signal (z-score),[13],-0.19
same,glycan array binding signal (z-score),[14],0.012
same,glycan array binding signal (z-score),[15],-0.185
same,glycan array binding signal (z-score),[16],-0.196
same,glycan array binding signal (z-score),Gal3S(b1-3)GalNAc,-0.167
same,glycan array binding signal (z-score),Gal3S(b1-3)GlcNAc,-0.141
same,glycan array binding signal (z-score),[17],-0.171
same,glycan array binding signal (z-score),Gal3S(b1-4)Glc,-0.159
same,glycan array binding signal (z-score),Gal3S(b1-4)Glc6S,-0.155
same,glycan array binding signal (z-score),Gal3S(b1-4)GlcNAc,-0.174
same,glycan array binding signal (z-score),Gal3S(b1-4)GlcNAc6S,-0.161
same,glycan array binding signal (z-score),Gal3S6S(b1-4)GlcNAc,-0.151
same,glycan array binding signal (z-score),Gal3S6S(b1-4)GlcNAc6S,-0.157
same,glycan array binding signal (z-score),Gal4S(b1-4)GlcNAc,-0.085
same,glycan array binding signal (z-score),Gal4S6S(b1-4)GlcNAc,-0.167
same,glycan array binding signal (z-score),Gal6S(b1-4)Glc,-0.169
same,glycan array binding signal (z-score),Gal6S(b1-4)Glc6S,-0.176
same,glycan array binding signal (z-score),Gal6S(b1-4)GlcNAc,-0.106
same,glycan array binding signal (z-score),GalNAc(a1-3)Gal,-0.155
same,glycan array binding signal (z-score),GalNAc(a1-3)GalNAc,-0.183
same,glycan array binding signal (z-score),[18],-0.173
same,glycan array binding signal (z-score),GalNAc(b1-4)GlcNAc,-0.167
same,glycan array binding signal (z-score),Glc(a1-4)Glc,-0.18
same,glycan array binding signal (z-score),Glc(a1-6)Glc(a1-6)Glc,-0.187
same,glycan array binding signal (z-score),Glc(b1-4)Glc,-0.187
same,glycan array binding signal (z-score),Glc(b1-6)Glc,-0.178
same,glycan array binding signal (z-score),GlcA(b1-3)Gal,-0.179
same,glycan array binding signal (z-score),GlcA(b1-6)Gal,-0.134
same,glycan array binding signal (z-score),[19],-0.153
same,glycan array binding signal (z-score),[20],-0.196
same,glycan array binding signal (z-score),[21],-0.176
same,glycan array binding signal (z-score),[22],0.975
same,glycan array binding signal (z-score),GlcNAc(b1-3)Gal,-0.192
same,glycan array binding signal (z-score),[23],-0.06
same,glycan array binding signal (z-score),GlcNAc(b1-3)Gal(b1-4)Glc,-0.178
same,glycan array binding signal (z-score),[24],-0.146
same,glycan array binding signal (z-score),[25],-0.197
same,glycan array binding signal (z-score),GlcNAc(b1-3)GalNAc,-0.194
same,glycan array binding signal (z-score),[26],-0.174
same,glycan array binding signal (z-score),[27],-0.163
same,glycan array binding signal (z-score),[28],-0.202
same,glycan array binding signal (z-score),[29],-0.173
same,glycan array binding signal (z-score),[30],-0.156
same,glycan array binding signal (z-score),[31],-0.143
same,glycan array binding signal (z-score),[32],-0.177
